Source: the RNAGym collection of RNA variant scans (doi:10.1073/pnas.2313332121)
Variants at the floor of the assay are shown more often than the library holds them.

B1: TPR 5TU (parent)
chain: GGAUCUUCUCGAUCUAACAAAAAAGACAAAUCUGCCACAAAGCUUGAGAGCAUCUUCGGAUGCAGAGGCGGCAGCCUUCGGUGGCGCGAUAGCGCCAACGUUCUCAACUAUGACACGCAAAACGCGUGCUCCGUUGAAUGGAGUUUAUCAUG

Variants of: B1
Assay: polymerase ribozyme fitness, log enrichment relative to wild type (log ratio); higher = more active; in vitro selection for triplet polymerase activity
Summary of the method: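 Each subunit of a heterodimeric triplet polymerase ribozyme was mutagenized into a library by PCR, transcribed, and subjected to one round of in vitro selection, run in triplicate. Libraries were annealed with a biotinylated primer, the partner subunit and triplets, incubated frozen at −7 °C, and extended constructs were gel-excised, captured on streptavidin beads and recovered by RT-PCR. Input and output libraries were sequenced on Illumina, keeping genotypes with ≥10 input reads and ≥1 read per output. Fitness is log base 2 of genotype enrichment divided by wild-type enrichment, from inverse-variance-weighted replicate averages.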

Variant | polymerase ribozyme fitness (log ratio)
C35G G70C U78C U102G C125A A138U | ≤ -4.2
G34C A39C U55A A60U A73U U146G | ≤ -4.2
G34A C35U U56G C95U C116U A142U | ≤ -4.2
G34C U44G U61A G80A A91C G141A | ≤ -4.2
C35U A52C C85U G117U | -2.29
G34U A52C G62U A64G C79A U109G U144C U151C | ≤ -4.2
G34A U56A C85G A91G U101G C103G U127G U145C | ≤ -4.2
C36A C93U A98C | ≤ -4.2
A37C G84A U101G G126C U135C | -3.6
C36G G50U G67C G74U G88U C114U | ≤ -4.2
C35U G50C U55A C87U | ≤ -4.2
C36A U82A U90G A98C | ≤ -4.2
A37C C93U G136C G141U | -3.34
U33G G42A G58C A91G G100A | ≤ -4.2
C36G U53C C95A U102G C116G G136A | ≤ -4.2
C35A C57U U82A C93A A98C C131G | ≤ -4.2
C36U U61G C93A C103A U109A U134A G136U | ≤ -4.2
C36U G58U C69A U139A A142U | ≤ -4.2
C35A A41U C79G U90G | ≤ -4.2
G34A C57U G86U C99U C105G C108U | ≤ -4.2
C35U G86U | -1.43

Variant | polymerase ribozyme fitness (log ratio)
G34U A40G C72U C96G | ≤ -4.2
A37C A89C A150U | ≤ -4.2
U33G G42A U45A G50A U77C C105G | ≤ -4.2
C35G C57U C85G U151A | ≤ -4.2
A37C U55A G84C C99U A107G U134A | ≤ -4.2
C35A U101C | -3.87
C35U C57G U77A U82G G83C C93A A137G | ≤ -4.2
C36A C87U A106U U139A G143C U148C G152A | ≤ -4.2
C36A G48A A60G G68C U78G C85U C93U U151A | ≤ -4.2
C35G G84A U104G U109G G140U | ≤ -4.2
C35G U55A G94A U101G C131U | ≤ -4.2
G34A C36U C93A C118G A142U | ≤ -4.2
C35A G46C C99G G133U | ≤ -4.2
C35A C96A A107U | ≤ -4.2
C35A U61A G84A U109G | ≤ -4.2
C35G G86U U109A A113U C114U A122U | ≤ -4.2
C36A C132G U145G | ≤ -4.2
A37C C85U C105G C108G G141A | ≤ -4.2
U33G G62C C125U | ≤ -4.2
C36U G48C A91U G92A | ≤ -4.2
C36U A73U A138U G140C | ≤ -4.2

Variant | polymerase ribozyme fitness (log ratio)
C35G A40U G50C U77A G92C C116G | ≤ -4.2
C35U C57U C93U A98U G117A G128U C149A | ≤ -4.2
C36U U56G C76G A106G C116U C129G A137C | ≤ -4.2
C35A U56A G58C G74C | ≤ -4.2
C35G A52U U53A U56A C93G C96U C105G G152A | ≤ -4.2
A37C A47C G88A G100A A137U | ≤ -4.2
C36G A40U U104A | ≤ -4.2
C36U C43U U56A C93A | ≤ -4.2
C35U A49G G88U C93G | ≤ -4.2
C35U U44A C54A C87U A110U | ≤ -4.2
C35U G62U A64G C76A G83A G84C G152C | ≤ -4.2
C35G A47C G67U C87G G128A | ≤ -4.2
C36U C95U | -1.98
C36A G83C C87G G117A C131G | ≤ -4.2
A37C G62U G86U G100C A107G | ≤ -4.2
U33G C116U | -2.7
A37C A52C G81C A107C C132U | ≤ -4.2
C35A G59A A89G C95G C114U G143A U144C | ≤ -4.2
C35U C69A C87A C95A C103A C118G C131A | ≤ -4.2
C36U U55A | -0.574
A37C C38A C93G C99A G126U | ≤ -4.2

Variant | polymerase ribozyme fitness (log ratio)
C36A A52C C85G A120G A122U U148A | -3.85
C36U G81C G86U G88U A147G | ≤ -4.2
C35U A37U A41G G42U C76U G84C A106U | ≤ -4.2
C35A A39U A97G | ≤ -4.2
U33G G58C C95G C131U | ≤ -4.2
C35A G70C A89U A91C G126A | ≤ -4.2
G34A C87U A89U G100A C103G A107U G124C U135G G140A G141C | ≤ -4.2
C36U G46U G86U C105A G124U | -3.12
C36U A41G G84A C114U A115C G152A | ≤ -4.2
G34U U56A A64C G70C A97U G100A | ≤ -4.2
C35U C95G | -1.22
C35U G140C | -4.13
C36U C54A G65C G67U G68U C95G A110C A113U C116U G143C C149A | ≤ -4.2
C35U C54U C87G U111G A142U G152A | ≤ -4.2
G34C G59A G112U A115U C125U | ≤ -4.2
C35U C75U C85U G140C | ≤ -4.2
C35U C51U G67A G92A C131G G133A U145G | ≤ -4.2
A37C G70C C87U U127C | ≤ -4.2
C35U U53A U55A G83U U101A | ≤ -4.2
C36U G46C C85U G92A C99U | ≤ -4.2
C35G U77C G80C C95U C118U U146C | ≤ -4.2
